Substitutions are numbered along the chain they refer to; changes in the protein carry UniProt numbers. Some of the results follow.
T1: RBFOX1 RRM (Homo sapiens, UniProt Q9NWB1 109-208)
T1 sequence: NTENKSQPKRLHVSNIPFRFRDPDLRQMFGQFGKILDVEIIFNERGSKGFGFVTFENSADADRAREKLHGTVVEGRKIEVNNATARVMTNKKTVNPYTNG

B1: CAAAUAU (DNA:RNA)
RNA: GGGAGACCGGAAUUCAGAUUGUCCCAAAUAUUUAAAUCCCGUCGUAGCCACCA
DNA 1: CAATCTGAATTCCGGTCTCCC
DNA 2: TGGTGGCTACGACGGGATT
B2: GGGAGAC (DNA:RNA)
RNA: B1 RNA with C25G, A26G, A27G, U29G, U31C
DNA 1: CAATCTGAATTCCGGTCTCCC
DNA 2: TGGTGGCTACGACGGGATT
B3: CCUAAGG (DNA:RNA)
RNA: B1 RNA with A26C, A27U, U29A, A30G, U31G
DNA 1: CAATCTGAATTCCGGTCTCCC
DNA 2: TGGTGGCTACGACGGGATT
B4: ACUGACG (DNA:RNA)
RNA: GGGAGACCGGAAUUCAGAUUGUCCACUGACGUUAAAUCCCGUCGUAGCCACCA
DNA 1: CAATCTGAATTCCGGTCTCCC
DNA 2: TGGTGGCTACGACGGGATT
B5: AGCAGGA (DNA:RNA)
RNA: B4 RNA with C26G, U27C, G28A, A29G, C30G, G31A
DNA 1: CAATCTGAATTCCGGTCTCCC
DNA 2: TGGTGGCTACGACGGGATT
B6: CCGUUUU (DNA:RNA)
RNA: B1 RNA with A26C, A27G, A28U, A30U
DNA 1: CAATCTGAATTCCGGTCTCCC
DNA 2: TGGTGGCTACGACGGGATT
B7: UAGGAUA (DNA:RNA)
RNA: B4 RNA with A25U, C26A, U27G, C30U, G31A
DNA 1: CAATCTGAATTCCGGTCTCCC
DNA 2: TGGTGGCTACGACGGGATT
B8: CUCCGAU (DNA:RNA)
RNA: B1 RNA with A26U, A27C, A28C, U29G
DNA 1: CAATCTGAATTCCGGTCTCCC
DNA 2: TGGTGGCTACGACGGGATT
B9: UACACGG (DNA:RNA)
RNA: B1 RNA with C25U, A27C, U29C, A30G, U31G
DNA 1: CAATCTGAATTCCGGTCTCCC
DNA 2: TGGTGGCTACGACGGGATT
B10: CGUGCUG (DNA:RNA)
RNA: B4 RNA with A25C, C26G, A29C, C30U
DNA 1: CAATCTGAATTCCGGTCTCCC
DNA 2: TGGTGGCTACGACGGGATT
B11: UCGCUUA (DNA:RNA)
RNA: B4 RNA with A25U, U27G, G28C, A29U, C30U, G31A
DNA 1: CAATCTGAATTCCGGTCTCCC
DNA 2: TGGTGGCTACGACGGGATT
B12: UAGGAUU (DNA:RNA)
RNA: B4 RNA with A25U, C26A, U27G, C30U, G31U
DNA 1: CAATCTGAATTCCGGTCTCCC
DNA 2: TGGTGGCTACGACGGGATT
B13: CCCAAUU (DNA:RNA)
RNA: B1 RNA with A26C, A27C, U29A, A30U
DNA 1: CAATCTGAATTCCGGTCTCCC
DNA 2: TGGTGGCTACGACGGGATT
B14: GCCGGAA (DNA:RNA)
RNA: B4 RNA with A25G, U27C, A29G, C30A, G31A
DNA 1: CAATCTGAATTCCGGTCTCCC
DNA 2: TGGTGGCTACGACGGGATT
B15: UUACCCC (DNA:RNA)
RNA: B4 RNA with A25U, C26U, U27A, G28C, A29C, G31C
DNA 1: CAATCTGAATTCCGGTCTCCC
DNA 2: TGGTGGCTACGACGGGATT
B16: GAUACUA (DNA:RNA)
RNA: B1 RNA with C25G, A27U, U29C, A30U, U31A
DNA 1: CAATCTGAATTCCGGTCTCCC
DNA 2: TGGTGGCTACGACGGGATT
B17: AGCAGUC (DNA:RNA)
RNA: B4 RNA with C26G, U27C, G28A, A29G, C30U, G31C
DNA 1: CAATCTGAATTCCGGTCTCCC
DNA 2: TGGTGGCTACGACGGGATT
B18: GUGACAG (DNA:RNA)
RNA: B1 RNA with C25G, A26U, A27G, U29C, U31G
DNA 1: CAATCTGAATTCCGGTCTCCC
DNA 2: TGGTGGCTACGACGGGATT
B19: CACACCA (DNA:RNA)
RNA: B1 RNA with A27C, U29C, A30C, U31A
DNA 1: CAATCTGAATTCCGGTCTCCC
DNA 2: TGGTGGCTACGACGGGATT
B20: UCUCAAC (DNA:RNA)
RNA: B4 RNA with A25U, G28C, C30A, G31C
DNA 1: CAATCTGAATTCCGGTCTCCC
DNA 2: TGGTGGCTACGACGGGATT
B21: AGCGGAU (DNA:RNA)
RNA: B4 RNA with C26G, U27C, A29G, C30A, G31U
DNA 1: CAATCTGAATTCCGGTCTCCC
DNA 2: TGGTGGCTACGACGGGATT
B22: AGAUCUA (DNA:RNA)
RNA: B4 RNA with C26G, U27A, G28U, A29C, C30U, G31A
DNA 1: CAATCTGAATTCCGGTCTCCC
DNA 2: TGGTGGCTACGACGGGATT
B23: CUACACC (DNA:RNA)
RNA: B4 RNA with A25C, C26U, U27A, G28C, G31C
DNA 1: CAATCTGAATTCCGGTCTCCC
DNA 2: TGGTGGCTACGACGGGATT
B24: CAACGAC (DNA:RNA)
RNA: B1 RNA with A28C, U29G, U31C
DNA 1: CAATCTGAATTCCGGTCTCCC
DNA 2: TGGTGGCTACGACGGGATT
B25: AAUGGUA (DNA:RNA)
RNA: B4 RNA with C26A, A29G, C30U, G31A
DNA 1: CAATCTGAATTCCGGTCTCCC
DNA 2: TGGTGGCTACGACGGGATT
B26: CGGCCAG (DNA:RNA)
RNA: B1 RNA with A26G, A27G, A28C, U29C, U31G
DNA 1: CAATCTGAATTCCGGTCTCCC
DNA 2: TGGTGGCTACGACGGGATT
B27: CGUUUUG (DNA:RNA)
RNA: B4 RNA with A25C, C26G, G28U, A29U, C30U
DNA 1: CAATCTGAATTCCGGTCTCCC
DNA 2: TGGTGGCTACGACGGGATT
B28: ACUUAUA (DNA:RNA)
RNA: B4 RNA with G28U, C30U, G31A
DNA 1: CAATCTGAATTCCGGTCTCCC
DNA 2: TGGTGGCTACGACGGGATT
B29: AUCAGAG (DNA:RNA)
RNA: B4 RNA with C26U, U27C, G28A, A29G, C30A
DNA 1: CAATCTGAATTCCGGTCTCCC
DNA 2: TGGTGGCTACGACGGGATT
B30: GGACAAG (DNA:RNA)
RNA: B4 RNA with A25G, C26G, U27A, G28C, C30A
DNA 1: CAATCTGAATTCCGGTCTCCC
DNA 2: TGGTGGCTACGACGGGATT
B31: GCGGUAG (DNA:RNA)
RNA: B4 RNA with A25G, U27G, A29U, C30A
DNA 1: CAATCTGAATTCCGGTCTCCC
DNA 2: TGGTGGCTACGACGGGATT

molecular target: T1, RBFOX1 RRM; test: EMSA; HiTS-Eq, 1 nM pool, 10 min; buffer printed only for the single-RNA assays: 10 mM Tris pH 7.5, 150 mM NaCl, 3.4 mM EDTA, 0.001% NP-40, 30 C; conditions: tags: His6 N-terminal (pET28a); label: 5' 32P
Procedure, shortened: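 Purified wild-type or mutant RbFox RRM at increasing concentrations was equilibrated with 1 nM of 5′-radiolabelled RNA carrying 7 randomized nucleotides for 10 min in 50 µL. Unbound RNA was separated by 8% native PAGE and sequenced. Relative association constants came from read-count changes of each RNA species compared with the control reaction, normalised to the cognate motif.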

In order of rising binding signal:
1. B15  0.0005 KA relative to UGCAUGU
2. B19  0.000943 KA relative to UGCAUGU
3. B23  0.000993 KA relative to UGCAUGU
4. B1  0.00103 KA relative to UGCAUGU
5. B28  0.00126 KA relative to UGCAUGU
6. B13  0.0029 KA relative to UGCAUGU
7. B24  0.00321 KA relative to UGCAUGU
8. B20  0.00346 KA relative to UGCAUGU
9. B7  0.00477 KA relative to UGCAUGU
10. B22  0.00635 KA relative to UGCAUGU
11. B16  0.00653 KA relative to UGCAUGU
12. B11  0.00671 KA relative to UGCAUGU
13. B8  0.00683 KA relative to UGCAUGU
14. B29  0.00693 KA relative to UGCAUGU
15. B12  0.00732 KA relative to UGCAUGU
16. B5  0.00761 KA relative to UGCAUGU
17. B21  0.00761 KA relative to UGCAUGU
18. B3  0.00828 KA relative to UGCAUGU
19. B9  0.00971 KA relative to UGCAUGU
20. B4  0.0104 KA relative to UGCAUGU
21. B6  0.0107 KA relative to UGCAUGU
22. B14  0.011 KA relative to UGCAUGU
23. B17  0.0114 KA relative to UGCAUGU
24. B25  0.0114 KA relative to UGCAUGU
25. B26  0.0139 KA relative to UGCAUGU
26. B18  0.0141 KA relative to UGCAUGU
27. B31  0.016 KA relative to UGCAUGU
28. B30  0.0165 KA relative to UGCAUGU
29. B10  0.0178 KA relative to UGCAUGU
30. B27  0.0185 KA relative to UGCAUGU
31. B2  0.0226 KA relative to UGCAUGU

Source: PMC9911399, “Two distinct binding modes provide the RNA-binding protein RbFox with extraordinary sequence specificity”
